Reference: the supplement of paper PMC11417369
The other results are listed elsewhere or left out.

The sequences below were run on PF3D7_0420300 AP2 domain 1 (GST-tagged) (assay: gcPBM binding intensity (ln(normalized median fluorescence intensity)); higher = stronger DNA binding).
In short: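 Plasmodium falciparum DNA-binding domains carrying a GST tag were expressed in E. coli and applied for 1 h, at about 25 μg on average, to an Agilent 4 × 180k array. The array held primer-extended double-stranded 36-bp intergenic genomic probes together with negative controls, and binding took place in 1× PBS with 1% milk, 0.2 mg/ml BSA, 0.5% salmon testes DNA and 0.03% Triton X-100. An Alexa488 anti-GST antibody detected bound protein, and the array was scanned at 488 nm. Binding intensity is taken as the highest Masliner-normalised natural-log median intensity across replicate spots of either probe orientation.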

Row | Sequence | gcPBM binding intensity (ln)
1 | TTTATATTAGGTCTTGAACGATTTTCATCATTATTA [TGCATGCA_negctrl_site100] | 9.13
2 | AATAAATATATAAATACACACAAACATACAGATATA [CACACA_site6088] | 10
3 | TTTAAAAGATAAAGACTGCACTTTAAGCACACAAAT [GTGCAC_site9752] | 9.18
4 | AATTCCTATAATGAGAGTACGCATTAGAACAGTAGG [XGTACX_site5721] | 9.25
5 | TTGATAAAAAAAAAAAAATAAAAAAAAAATAAAAAA [XGTACX_negctrl_site480] | 8.95
6 | AAAAAAGTAAAAAGTGCATGTAAAATATAAGTATCT [TGCATGCA_site55] | 9.63
7 | TTTTTTTTTTATTTTGCACACTTCTAATTTAGTTGT [CACACA_site3429] | 9.32
8 | GTTATTCTTAATTTTTGTACACATTTTTATATTATT [XGTACX_site7227] | 9.76
9 | ATATATATGTATATGTGTACTTATATTTGTCATTTT [XGTACX_site1317] | 9.44
10 | GAACAAAAGGAATGTTGTACATAAAAAATGAAAAAT [XGTACX_site3929] | 9.33
11 | AAAAAAATTAAACACACACACACATATATATATATA [CACACA_site4718] | 10.1
12 | AAAATTTAATATAATGCACACATAAAAAAAAATTCA [CACACA_site8640] | 9.36
13 | TCCTGCCTCTCTTTGGTGCGTTGTAACCCTCGAGGA | 9.11
14 | ATATTAATATACATATGTACATATATATATATATAT [XGTACX_site7425] | 9.29
15 | TAAATTATTTATAAAGCACACAAGAAAAAATAAAAT [CACACA_site2132] | 9.68
16 | TAAAGGCAAACAAACACACACACATATATACATATA [CACACA_site2123] | 10.2
17 | CCAATACTGTTTAAATGTACAAGTAGGAGGTTAATT [XGTACX_site7260] | 9.41
18 | AAAAATTAACAAAAGGTGCAAACAAATAGTGGTTTT [GTGCAC_site9998] | 9.57
19 | ATTATAATTGCATATACACACAAAGGTTCATAACAA [CACACA_site7440] | 9.52
20 | ACATATATAAAATAATGTACATTTTTAAGAATGCGT [XGTACX_site7654] | 9.25
21 | ACAGTATTTCGAGATGGTACACATATATATATATAT [XGTACX_site6880] | 9.28
22 | AAAAAAAAAAAAAAAAGGGGGGGAGGGATTGAAAAA [CACACA_negctrl_site193] | 10

Row | Sequence | gcPBM binding intensity (ln)
23 | AATGAGGATATATACACACATACATTAAAAAAATAT [CACACA_site1849] | 9.77
24 | ATGAGTTACATGGGAAAAATATATATATATATATAT [CACACA_negctrl_site579] | 9.19
25 | TTTAAAAGATAAAACACACATACTAATAAAAAACAA [CACACA_site2556] | 9.71
26 | TTGTATCCTTAATGCATGCACCAAATAACAAAAGTA | 9.05
27 | TTGTTGTATTATTTATGTACATATGTATATGTATAT [XGTACX_site1315] | 9.37
28 | TGATAAATATGGAGCACACACACATAAACATACATA [CACACA_site420] | 10.1
29 | GATGTGATGTATTTGGTATTTTTCGATGTTGGTAGG [CACACA_negctrl_site355] | 9.6
30 | TATTATATATCAAAATGTACATTAATTTGAGTAATT [XGTACX_site5434] | 9.02
31 | TGTTCAGTAGGGCACACACACAACAAAATAAAAAAA [CACACA_site378] | 9.79
32 | TTACCTCTTTGAAATATACACACTAATCATATCAAC [CACACA_site8778] | 9.35
33 | TTTTTGCTATTCTATTATATATATAATATATTTTAC [CACACA_negctrl_site262] | 9.46
34 | CTTTTTTCAAAACACACACACAAGAAAATATATATA [CACACA_site3109] | 9.92
35 | TTTTTTTTTTTTGTGCGTACATACCATTTTAATAAT [XGTACX_site2760] | 9.13
36 | GAGATTTATTTATGTGCACACTAGAACAATTGGATC [CACACA_site2090] | 9.45
37 | AAGACATTTTTTAAGGTGCTTTGGAAAAAGGAGTAT [GTGCAC_site9816] | 9.24
38 | ACAAGTAATTAAGAGTGTACATAACTATAAATCCAA [XGTACX_site5215] | 9.49
39 | TATAATAAAATATGTACACACATACACCCATATATA [CACACA_site4808] | 9.77
40 | GATATGATGAGATTGATATTCATAAGAGGATTAATG [GTGCAC_negctrl_site515] | 9.03
41 | TGTATGTATGTATTATTTGTTATTTTAATTTTTTTG [TGCATGCA_negctrl_site256] | 9.61
42 | AAAAATGATATGAGTTGTACATAAGTAAGAATTATT [XGTACX_site7089] | 9.4
43 | TAAAAACGATTTTTTGCACACACATAATAAGCAGAA [CACACA_site3870] | 9.81
44 | GGACAAGTTAAACGCACACAAATATATACCCCCATA [CACACA_site4996] | 9.9
